Experimental data as given in the RNAGym collection of RNA variant scans (doi:10.7554/elife.90254).
Read counts are not given, so values of variants with three or more changes are uncertain.

B1: LINE1-mini (parent)
chain: GGCAGAGCUCAACACAGCGUGGCAAAGUGGCUGUGGCUAGACUGCC

Variants of: B1
Assay: self-cleavage, relative activity (ratio to wild type); higher = more cleavage; in vitro, sequencing; the parent is a self-cleaving ribozyme

Row | Variant | self-cleavage
1 | G5A G30C C42A C46A | 0.03
2 | C8U C23A A26C G33U | 0.08
3 | A16C U32C U38G | 0.01
4 | G2A U9G G33U U34G | 0.1
5 | A11G U28G U43C | 0
6 | G19C A41C C45U | 0.05
7 | A4U A16C G17C A26U U32G G40A | 0
8 | G21U G36C C37U U43A | 0.01
9 | G17C C23G U28A U38G C46U | 0.01
10 | A16G A24C A26C U32C | 0.2
11 | C10U U38G G40U | 0.02
12 | A6G A16U C18G G33C A41G | 0.01
13 | G1U C8U C15A C23A C31A G44C | 0.01
14 | U9A A12C G30C | 0.01
15 | G5C G30U C31A | 0.06
16 | G5U C15A G22U G36A A39U C46G | 0.02
17 | A14U G29C G30U U38G | 0.05
18 | U9A A26G U34C A39C G44A | 0
19 | G5U C13A G19C G27A U38A | 0.01
20 | A6U C10A G21U U34G | 0.06
21 | A16C C18G A26U C42A G44A | 0.01

Row | Variant | self-cleavage
22 | C3G C13A A14C | 0.27
23 | C8G A11C G17C C42G G44C | 0
24 | G5U G17C C46U | 0.06
25 | A25G A26G A39G | 0.03
26 | G1U C8A A39G | 0.39
27 | G17U G22A A26C G35C | 0.12
28 | G17A U20A G21A | 0.96
29 | G5C A24G C37G | 0.03
30 | G5U A12U C15G C46U | 0.04
31 | A14C G19A U32G U38A C46U | 0.12
32 | C8A G30A C31A G35C C45A | 0.06
33 | A12U G19U A26U G33C | 0.02
34 | C8U U9C U34A C37A | 0.07
35 | A25C G30C C31A G33U U34C C37U A39G C46A | 0.01
36 | A4C G19A G21C U38G C45U | 0.04
37 | G2U G19U G27C | 0.07
38 | C10U G21C A25G U43A | 0.02
39 | A16U C18U G36C | 0.03
40 | G5A A6G A26U | 0.13
41 | G5C C13U A16G G29C C45G | 0
42 | C10U C18A G27A G35A C37U | 0.01

Row | Variant | self-cleavage
43 | C10A G44A C45A C46A | 0.02
44 | C10G A11U A25G G40C | 0.01
45 | A26G C31A G36A | 0.36
46 | U9G A12U G17A A24C | 0.03
47 | C3G A11C C23G G29A C31A C45A | 0.01
48 | G1U A14G G22C | 0.03
49 | G17C C37A G44A C45U | 0
50 | A4C A12U C13A G17A G21A C23U U34C | 0.11
51 | U9G C18A A24C A41G | 0.04
52 | A24U G30C G36U G40U | 0.07
53 | G7A C18A A24G A39G | 0.03
54 | G7U C8A C10G G27C | 0.04
55 | A12C A25C U38A | 0.01
56 | G5C G17U C18A C45U | 0.03
57 | A16G A26U C46A | 0.05
58 | U20C G27U G30A | 0.79
59 | C13U C18U A25G | 0.07
60 | G2A C3G G21U U32G G33A C37G C42G | 0.08
61 | U9G U20A A25C | 0.14
62 | A16C G44U C45A | 0.01
63 | C10A C13U A25U A26U G29C G36C | 0

Row | Variant | self-cleavage
64 | G17U G30U A39G | 0.03
65 | C3U G7A A12U A14C A16C U20C | 0.23
66 | A6G A12U C15G G17U U28A | 0.02
67 | C3A U20G G27A G44A | 0.4
68 | U20G C31G G35C | 0.03
69 | G2U A12C U43A | 0.01
70 | U9A C10A A12U G17C G27U A39C | 0
71 | A14U C15A U32A | 0.05
72 | G1A U9C C13G A14G U38C | 0.05
73 | A16U U32A C42A | 0.07
74 | A12U U20C G27U | 0.38
75 | C3A A14G A39U | 0.06
76 | G1A A4C C10A U32C | 0.06
77 | G5A A11U G30A | 0.02
78 | G1U A24C U28C C37U G40C | 0.01
79 | A12G G17A C23A | 0.01
80 | G5A C15G G21U G22U C31U | 0.02
81 | C13U C15A U38A | 0.05
82 | A4C A6C A39U C45G C46G | 0
83 | A14G U28C C37A | 0.06
